About 14,000 (4.5%) of roughly 310,000 compounds showed an effect of 50% or more. Effects have a minus sign here. The list shows a part of the results.
Biological target: human ether-à-go-go-related gene (hERG) potassium channel (human, UniProt Q12809)
Experiment: primary screen, population patch clamp on CHO cells stably expressing hERG
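Note: peak tail current of the secondary pulse compared with the same well before compound.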

Chain of human ether-à-go-go-related gene (hERG) potassium channel (Q12809 whole entry, looked up): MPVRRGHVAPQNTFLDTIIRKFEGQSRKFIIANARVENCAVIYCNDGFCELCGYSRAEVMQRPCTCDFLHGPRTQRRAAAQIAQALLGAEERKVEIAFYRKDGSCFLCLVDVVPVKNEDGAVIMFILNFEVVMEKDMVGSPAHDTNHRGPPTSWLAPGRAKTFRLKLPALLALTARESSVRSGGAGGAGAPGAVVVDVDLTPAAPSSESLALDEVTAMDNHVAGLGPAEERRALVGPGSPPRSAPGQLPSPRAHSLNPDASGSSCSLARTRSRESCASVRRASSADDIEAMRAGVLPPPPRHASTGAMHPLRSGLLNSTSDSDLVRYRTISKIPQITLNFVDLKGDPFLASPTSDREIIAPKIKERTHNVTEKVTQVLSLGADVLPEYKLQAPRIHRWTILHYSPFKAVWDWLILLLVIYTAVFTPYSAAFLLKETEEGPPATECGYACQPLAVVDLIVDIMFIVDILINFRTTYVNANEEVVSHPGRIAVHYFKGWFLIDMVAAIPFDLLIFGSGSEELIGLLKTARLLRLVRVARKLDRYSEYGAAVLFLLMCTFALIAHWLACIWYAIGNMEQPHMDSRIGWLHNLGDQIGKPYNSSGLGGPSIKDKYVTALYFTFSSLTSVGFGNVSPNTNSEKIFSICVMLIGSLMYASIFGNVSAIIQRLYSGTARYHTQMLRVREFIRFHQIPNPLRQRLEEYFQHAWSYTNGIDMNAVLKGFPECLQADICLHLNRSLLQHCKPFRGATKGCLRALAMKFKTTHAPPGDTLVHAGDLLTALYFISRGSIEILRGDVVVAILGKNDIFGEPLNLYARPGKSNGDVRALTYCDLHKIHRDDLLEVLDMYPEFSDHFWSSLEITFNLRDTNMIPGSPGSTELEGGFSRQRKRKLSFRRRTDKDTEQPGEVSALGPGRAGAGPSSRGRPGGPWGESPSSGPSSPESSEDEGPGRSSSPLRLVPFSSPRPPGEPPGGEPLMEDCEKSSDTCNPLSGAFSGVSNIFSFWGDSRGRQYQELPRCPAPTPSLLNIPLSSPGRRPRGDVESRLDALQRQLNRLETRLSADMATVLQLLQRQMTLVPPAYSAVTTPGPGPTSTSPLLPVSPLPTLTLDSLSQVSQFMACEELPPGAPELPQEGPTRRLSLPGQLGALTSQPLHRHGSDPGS

Q: How did the “hERG current change (%, negative = inhibition) at 10uM” value turn out when `COc1ccc(-c2nnn(CC(=O)NCc3ccccc3)n2)cc1OC` was run?
A: 7.61%

Q: How did the “hERG current change (%, negative = inhibition) at 10uM” value turn out when `CCOC(=O)/C(C#N)=C/c1c(Oc2cc(C)cc(C)c2)nc2ccccn2c1=O` was run?
A: 5.1%

Q: `NC(=O)COC(=O)c1cc(=O)[nH]c2ccccc12` was tested. Which “hERG current change (%, negative = inhibition) at 10uM” value did it give?
A: 6.36%

Q: Which “hERG current change (%, negative = inhibition) at 10uM” value does the source give for `COc1cc(S(=O)(=O)NCc2ccccn2)c(OC)cc1Cl` here?
A: -1.73%

Q: How did the “hERG current change (%, negative = inhibition) at 10uM” value turn out when `Cc1nc2c(c(=O)[nH]1)C(c1ccccc1Cl)c1c(c3ccccc3oc1=O)O2` (stereo not drawn) was run?
A: 8.77%

Q: How did the “hERG current change (%, negative = inhibition) at 10uM” value turn out when `CC1=C(C(=O)Nc2ccc(C)cc2)C(c2ccco2)NC(=O)N1` (stereo not drawn) was run?
A: -4.51%

Q: With `CN(Cc1ccccc1)C(=O)c1ccc(NC(=O)Cc2cccc(NC(=O)C3CCN(C(=O)C4CCCCC4)CC3)c2)cc1` as the compound, how does the “hERG current change (%, negative = inhibition) at 10uM” value read?
A: 8.47%

Q: `Oc1oc(-c2ccccc2Br)nc1/C=N/c1ccccn1` was tested. Which “hERG current change (%, negative = inhibition) at 10uM” value did it give?
A: 2.11%

Q: `COc1ccc(N(C)S(=O)(=O)c2cccc(C(=O)Nc3cccc(C(=O)NC4CC4)c3)c2)cc1` was tested. Which “hERG current change (%, negative = inhibition) at 10uM” value did it give?
A: -11.3%

Q: Which “hERG current change (%, negative = inhibition) at 10uM” value does the source give for `COc1ccc(C(=O)N(Cc2ccco2)Cc2cccs2)c(O)c1` here?
A: -6.63%

Q: With `C#CCn1c(=NC(=O)CN2C(=O)CCC2=O)sc2cc(S(N)(=O)=O)ccc21` as the compound, how does the “hERG current change (%, negative = inhibition) at 10uM” value read?
A: 17.1%

Q: `O=C(N/N=C/c1ccccc1O)c1ccc2c(c1)OCO2` was tested. Which “hERG current change (%, negative = inhibition) at 10uM” value did it give?
A: 23.9%

Q: With `CCOC(=O)CC(NC(=O)CCS(=O)(=O)c1ccc2c(c1)n(C)c(=O)c(=O)n2C)c1ccc(C)cc1` (stereo not drawn) as the compound, how does the “hERG current change (%, negative = inhibition) at 10uM” value read?
A: 9.03%

Q: With `CCCc1cc(=O)oc2cc(C)cc(OCC(=O)Nc3cccnc3)c12` as the compound, how does the “hERG current change (%, negative = inhibition) at 10uM” value read?
A: -0.927%

Q: How did the “hERG current change (%, negative = inhibition) at 10uM” value turn out when `CC(C)C(NC(=O)CN(c1cccc(F)c1)S(C)(=O)=O)C(C)C` was run?
A: 1.21%

Q: Which “hERG current change (%, negative = inhibition) at 10uM” value does the source give for `CS(=O)(=O)c1ccccc1C(=O)Nc1ccccc1Cc1ccccc1` here?
A: 11.9%

Q: `CCOCCCNC(=O)C(NC(=O)c1ccc(=O)[nH]c1)c1ccc(C)cc1` (stereo not drawn) was tested. Which “hERG current change (%, negative = inhibition) at 10uM” value did it give?
A: 8.03%

Q: For `O=C(NCc1ccccn1)Nc1cc(Cl)cc(Cl)c1`, which “hERG current change (%, negative = inhibition) at 10uM” value is on record?
A: 21.4%

Q: Which “hERG current change (%, negative = inhibition) at 10uM” value does the source give for `O=C(NCc1ccccn1)C(=O)NCC1OCCN1C(=O)c1ccc(Cl)cc1` (stereo not drawn) here?
A: 8.81%

Q: With `CN(CCc1ccccn1)C(=O)Nc1ccc(C(C)(C)C)cc1` as the compound, how does the “hERG current change (%, negative = inhibition) at 10uM” value read?
A: -19.3%

Q: With `CCCCCC(=O)Nc1ccccc1N1CCN(c2ccccc2)CC1` as the compound, how does the “hERG current change (%, negative = inhibition) at 10uM” value read?
A: -0.752%

Q: How did the “hERG current change (%, negative = inhibition) at 10uM” value turn out when `CCc1ccc2[nH]c(=O)c(CN(Cc3ccccc3)Cc3nnnn3Cc3ccco3)cc2c1` was run?
A: 12.6%

Q: With `CCN(C(=O)COC(=O)c1cc(Cl)ccc1OC)c1c(N)n(Cc2ccccc2)c(=O)[nH]c1=O` as the compound, how does the “hERG current change (%, negative = inhibition) at 10uM” value read?
A: 4.46%

Q: With `OCC1(Cc2cccc(F)c2)CCN(Cc2cccc3nccnc23)CC1` as the compound, how does the “hERG current change (%, negative = inhibition) at 10uM” value read?
A: -59.8%

Q: With `O=C(N/N=C/c1cccc(O)c1)N/N=C/c1cccc(O)c1` as the compound, how does the “hERG current change (%, negative = inhibition) at 10uM” value read?
A: 9.81%

Q: Which “hERG current change (%, negative = inhibition) at 10uM” value does the source give for `COCCN1CCN(c2cc(-c3ccccc3)nc3cc(-c4cccc(F)c4)nn23)CC1` here?
A: -5.02%

Q: With `COc1ccc2cc(S(=O)(=O)NCc3cccnc3)ccc2c1` as the compound, how does the “hERG current change (%, negative = inhibition) at 10uM” value read?
A: -8.18%

Q: For `CCCc1ccc(NS(=O)(=O)c2c(C)oc(C)c2C(=O)OC)cc1`, which “hERG current change (%, negative = inhibition) at 10uM” value is on record?
A: 6.25%

Q: Which “hERG current change (%, negative = inhibition) at 10uM” value does the source give for `O=C(C1CCCN(Cc2ccccc2F)C1)N1CCc2ccccc2C1.O=C(O)C(=O)O` (stereo not drawn) here?
A: -22.6%

Q: How did the “hERG current change (%, negative = inhibition) at 10uM” value turn out when `CC(C)C12CN3CC(C(C)C)(CN(C1)C3c1cccnc1)C2=O` (stereo not drawn) was run?
A: -6.26%

Q: Which “hERG current change (%, negative = inhibition) at 10uM” value does the source give for `CCC(C)(C(=O)NC1CCCCC1)N(C(=O)c1ccccn1)c1ccc(C)cc1` (stereo not drawn) here?
A: 5.82%

Q: How did the “hERG current change (%, negative = inhibition) at 10uM” value turn out when `COc1ccc(NC(=O)O/N=C/c2c(C)nn(C(C)(C)C)c2C)cc1` was run?
A: -17.7%

Q: For `O=C(Cc1nc2ccccc2[nH]1)c1cccc([N+](=O)[O-])c1`, which “hERG current change (%, negative = inhibition) at 10uM” value is on record?
A: 10.6%

Q: Which “hERG current change (%, negative = inhibition) at 10uM” value does the source give for `COc1cc(-c2noc(C)c2/C=C/c2ccc(C(=O)O)cc2)cc(OC)c1OC` here?
A: -4.61%

Q: How did the “hERG current change (%, negative = inhibition) at 10uM” value turn out when `CCC(=O)Nc1ccc(NC(=S)NC(=O)c2cc3ccccc3o2)cc1` was run?
A: 7.15%

Q: `CO/N=C(/CS(=O)Cc1ccccc1Cl)c1ccc(Cl)cc1Cl` (stereo not drawn) was tested. Which “hERG current change (%, negative = inhibition) at 10uM” value did it give?
A: -6.41%

Q: For `COc1ccc(NS(=O)(=O)c2cc(NC(=O)CCNC(C)=O)ccc2N2CCOCC2)cc1`, which “hERG current change (%, negative = inhibition) at 10uM” value is on record?
A: -8.01%

Q: Which “hERG current change (%, negative = inhibition) at 10uM” value does the source give for `OC(COc1cccc(OCC(O)CN2CCCC2)c1)CN1CCCC1` (stereo not drawn) here?
A: -2.86%

Q: For `c1ccc(Oc2cccc(OCCn3cncn3)c2)cc1`, which “hERG current change (%, negative = inhibition) at 10uM” value is on record?
A: -12.7%

Q: With `C/C(=N/NC(=O)Nc1ccccc1)c1ccc(C)cc1` as the compound, how does the “hERG current change (%, negative = inhibition) at 10uM” value read?
A: -1.46%

Q: `CCOc1ccccc1NC(=O)CSc1nc2cccnc2n1C` was tested. Which “hERG current change (%, negative = inhibition) at 10uM” value did it give?
A: -1.64%

Q: How did the “hERG current change (%, negative = inhibition) at 10uM” value turn out when `Cn1nc(C(F)(F)F)c2cc(C(=O)N3CCOCC3)sc21` was run?
A: 25.8%

From article PMC4336329 (PLoS ONE, 2015)
